Hit rate of the full screen: of about 410,000 compounds, about 5,000 (1.2%) were called active. The shares of active, inactive and inconclusive entries below differ from those in the screen. Calls follow the shape of the dose curve; as a rule, active = well fitted inhibition curve with a large enough effect; inconclusive = small, poorly fitted or top-dose-only effect; inactive = no such curve, though single readings can be large or run the other way. Where the call is inconclusive, the potency comes from a doubtful curve fit.
assay: qHTS for Inhibitors of TGF-b; conditions: HepG2 CAGA-GFP TGF-b/SMAD3 reporter, GFP fluorescence, 18 h, TGF-beta stimulated, 500 pg/mL final; series mostly up to 46.1 µM; activity, negative = inhibition: at the top concentration; also: nearly all actives have a fitted effect of over 65% in size
In short: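 First, reporter cells (HEPG2 CAGA-GFP) rested 2 h at 37 degrees C. Next, compounds were pinned in and TGF-beta added to 500 pg/mL final. After 18 h, GFP was imaged per cell and summed per well.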
% is scaled to controls: 0 for no effect and ±100 for the full control effect; potency is read from the fitted curve at half-maximal effect; tags tell the direction and shape of the fitted curve.

| Structure (SMILES) | Potency | activity, negative = inhibition |
| --- | --- | --- |
| CN(C)CCOc1ccc(-c2c(-c3ccsc3)sc3ccccc23)cc1 | inconclusive: 35.5 µM [inhibitor, single point] |  |
| COc1ccc(NC(=O)CSc2nnc(-c3nonc3NC(C)=O)n2-c2ccccc2)cc1 |  | inactive: -10.2% |
| CCn1cc(C(=O)NC(C)C)c(=O)c2cc(F)c(N3CCN(C(=O)c4ccco4)CC3)cc21 |  | inactive: -3.98% |
| C=C(C)CNC(=S)N/N=C\c1ccc2c(c1)OCO2 | inconclusive: 7.94 µM [inhibitor, partial curve] |  |
| O=C(Nc1ncc2c(n1)-c1ccccc1CC2)c1cccc(Cl)c1 | inconclusive: 11.2 µM [inhibitor, partial curve, poor fit] |  |
| CS(=O)(=O)N(CC(O)Cn1c2ccccc2c2ccccc21)c1cccc2ccccc12 (configuration not stated) | inconclusive: 20 µM [inhibitor, single point] |  |
| Cc1cccn2c(=O)c3cc(S(=O)(=O)c4ccc(F)cc4)c(=N)n(Cc4ccco4)c3nc12 |  | inactive: 0% |
| O=CNc1cc(-c2ccccc2Oc2ccccc2)cn2c(-c3ccc(F)cc3)cnc12 | inconclusive: 22.4 µM [inhibitor, single point] |  |
| O=[N+]([O-])c1ccc(-c2nc3ccc([N+](=O)[O-])cc3[nH]2)cc1 | inconclusive: 35.5 µM [inhibitor, partial curve, poor fit] |  |
| O=C1CCC[C@@H]2C[C@@]3(C[C@@H]4CCN1[C@H]24)Nc1cc(Cl)ccc1NC3=NC1CCCCC1 | inconclusive: 14.1 µM [inhibitor, single point] |  |
| O=c1nc2n(-c3ccccc3F)c3ccccc3cc-2c(=O)[nH]1 |  | inactive: 21.7% |
| O=C(Nc1ccc(OC(F)(F)F)cc1)c1cc2ccccn2n1 |  | inactive: -10% |
| CCC(=O)Nc1cccc(C2=NOC3(C2)C[C@@H](C(N)=O)N(C(=O)C(c2ccccc2)c2ccccc2)C3)c1 (some centres not stated) | inconclusive: 35.5 µM [inhibitor, partial curve, poor fit] |  |
| CCCCn1cc2c(c1-c1ccc(Cl)cc1)c(=O)n(C)c(=O)n2C | inconclusive: 7.08 µM [inhibitor, partial curve, poor fit] |  |
| CCc1c(C)nc(N)n2c(SCC(=O)Nc3ccccc3)nnc12 | inconclusive: 22.4 µM [inhibitor, partial curve, poor fit] |  |
| COc1ccc(NC(=O)CNc2cccc(S(=O)(=O)N3CCCCCC3)c2)c([N+](=O)[O-])c1 |  | inactive: -16.9% |
| CCOc1ccccc1OCCCn1c(-c2ccc(Cl)cc2)nc2ccccc2c1=O |  | inactive: -0.363% |
| COc1ccc(Br)cc1CN1CCC(N2CCCC2)CC1 |  | inactive: 5.5% |
| CC(C)(C)Cc1c(C2CCCCC2)nc2ccc(Br)cn12 | inconclusive: 8.91 µM [inhibitor, partial curve] |  |
| Cc1ccc(Cl)cc1N1CCN(C(=O)c2ccc3c(c2)N(Cc2ccc(F)cc2)CCS3)CC1 |  | inactive: -2.74% |
| CN(C)CCNC(=O)c1cccc2nc3cccc(F)c3nc12 | inconclusive: 3.55 µM [inhibitor, partial curve, poor fit] |  |
| CC(C)OCCCNC1=C(Cl)C(=O)c2ccccc2C1=O | inconclusive: 12.6 µM [inhibitor, partial curve, poor fit] |  |
| Cc1cc(C)cc(NC(=O)Cn2nnc(C(=O)NCc3ccc(F)cc3)c2N)c1 |  | inactive: -13.2% |
| Cc1cccc(NC(=O)N2CC(=O)Nc3sc4c(c3C2c2ccccc2)CCCC4)c1C (configuration not stated) | inconclusive: 28.2 µM [inhibitor, single point] |  |

| Structure (SMILES) | Potency | activity, negative = inhibition |
| --- | --- | --- |
| CCN1c2ccccc2-c2nc3ccccc3n2C1c1cccs1 (configuration not stated) | inconclusive: 35.5 µM [inhibitor, single point] |  |
| COc1cccc(CC(=O)OCC(=O)NC2CCCC2)c1 |  | inactive: 0.245% |
| COc1cc2ccccc2cc1C(=O)Nc1ccc(Cc2ccncc2)cc1 | inconclusive: 12.6 µM [inhibitor, partial curve] |  |
| COc1ccc(C(=O)Nc2ccc(CN3CCOCC3)cc2)cc1Br |  | inactive: -27.2% |
| CCN1C(=O)N[C@@H](CCc2ccccc2)C(C(=O)OC)=C1C | inconclusive: 11.2 µM [inhibitor, single point] |  |
| Cc1cccc(C(=O)Nc2cccc(-c3ccc4nncn4n3)c2)c1 |  | inactive: 16.7% |
| O=C(CSCc1ccccc1Cl)N1CCN(c2ccc(Cl)cc2)CC1 | inconclusive: 11.2 µM [inhibitor, single point] |  |
| COc1ccc(N(C(=O)c2ccco2)C(C(=O)NC2CCCC2)c2cccs2)cc1 (configuration not stated) |  | inactive: 44.3% |
| COc1c(C)cccc1C(=O)Nc1cccc2ccc(C)nc12 |  | inactive: 0% |
| Cc1ccc2cc(C=O)c(N3CCOCC3)nc2c1C |  | inactive: -0.932% |
| CCN(CC(=O)Nc1c(F)cccc1F)C(=O)/C=C/c1ccc2c(c1)OCO2 |  | inactive: 22.4% |
| COc1cc2c(cc1NC(=O)CSc1nc3ccccc3[nH]1)oc1ccccc12 | inconclusive: 3.16 µM [inhibitor, partial curve, poor fit] |  |
| O=C(NN1C(=O)C2C3C=CC(C4CC34)C2C1=O)c1ccc(Cl)cc1 (configuration not stated) | inconclusive: 5.62 µM [inhibitor, single point] |  |
| CCOC(=O)C1(CCOc2ccccc2)CCN(C(=O)c2ccc(-n3cccn3)cc2)CC1 | inconclusive: 35.5 µM [inhibitor, partial curve, poor fit] |  |
| CC(=O)c1cccc(NC(=O)C2CCN(S(=O)(=O)c3ccc4c(c3)oc(=O)n4C)CC2)c1 |  | inactive: -9.91% |
| N#Cc1ccc(/C=C/C(=O)c2ccccc2)cc1 | inconclusive: 11.2 µM [inhibitor, partial curve, poor fit] |  |
| O=C(O)c1ccc(Nc2nc3c(s2)CCCC3)cc1 |  | inactive: 3.56% |
| CC(C)C[C@@H](C(=O)N[C@@H](C(=O)O)c1ccccc1)N1C(=O)N2CCc3c([nH]c4ccccc34)[C@@]2(C)C1=O |  | inactive: 10.3% |
| CCCCN(C)C(=O)CS(=O)(=O)Cc1nc(-c2cccc(OC)c2)oc1C |  | inactive: -0.153% |
| Cc1ccccc1OCCOC(=O)c1cc(S(=O)(=O)N2CCOCC2)ccc1C |  | inactive: -3.37% |
| CC1=C(C(=O)OCC2CCCO2)C(c2ccccc2)NC(=O)N1 (configuration not stated) |  | inactive: 1.02% |
| COc1cc(/C=C(\C#N)c2nc3ccccc3[nH]2)cc(OC)c1O |  | inactive: 162% |
| Cc1ccc(NC(=O)Cn2c(=O)n(CC3CCCO3)c(=O)c3ccccc32)cc1 (configuration not stated) |  | inactive: 3.65% |
